Measurements from patent US20170095573A1, “METHODS AND COMPOSITIONS FOR TREATING ALLERGY AND INFLAMMATORY DISEASES” (Baylor Research Institute, priority 2014, published 2017).

Tested on: blood mDCs
Experiment: TSLP-induced OX40L and CD86 expression on mDCs
Details: mDCs cultured with TSLP; 20 ng/mL TSLP, 10 μg/mL conjugate or antibody, 100 ng/mL pam3, 48 hours in Example 6
Description: (FIG. 4A) mDC staining and (FIG. 4B) compiled results.
Allergens and respiratory viruses induce epithelial cells to secrete TSLP that can upregulate OX40L expression on DCs. OX40L play a pivotal role in the DC-induced elicitation of allergic Th2 type inflammatory T cell responses. Thus, it was tested whether anti-Dectin-1-Pam3 could suppress the TSLP-induced OX40L expression on mDCs (FIG. 4).
Next, mDCs were first purified from a buffy coat then cultured with 20 ng/mL TSLP and either 100 ng/mL pam3, 10 μg/mL of anti-dectin-1 or 10 μg/mL of αDectin-1-pam3. Cells were harvested and stained after 48 hours.

## CCCCCCCCCCCCCCCC(=O)N[C@@H](CSCC(COC(=O)CCCCCCCCCCCCCCC)OC(=O)CCCCCCCCCCCCCCC)C(=O)N[C@@H](CO)C(=O)N[C@@H](CCCCN)C(=O)N[C@@H](CCCCN)C(=O)N[C@@H](CCCCN)C(=O)N[C@@H](CCCCN)C(=O)O (mixture of isomers) [Pam3, N-Palmitoyl-S-[2,3-bis(palmitoyloxy)-(2RS)-propyl]-[R]-cysteinyl-[S]-seryl-[S]-lysyl-[S]-lysyl-[S]-lysyl-[S]-lysine]
  TSLP-induced OX40L expression on mDCs: could not alter the TSLP-induced OX40L expression
